Experimental data as given in the RNAGym collection of RNA variant scans (doi:10.1093/nar/gkz1192).
Read counts are not given, so values of variants with three or more changes are uncertain.

B1: CPEB3 Ribozyme (parent)
chain: UAACAGGGGGCCACAGCAGAAGCGUUCACGUCGCAGCCCCUGUCAGAUUCUGGUGAAUCUGCGAAUUCUGCUGUAUAUCUC

Variants of: B1
Assay: self-cleavage, relative activity (ratio to wild type); higher = more cleavage; in vitro, sequencing
Procedure, shortened: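 Libraries of CPEB3 self-cleaving ribozyme mutants came from rounds of error-prone PCR and carried barcodes, which DNA sequencing matched to variants. In vitro transcription used T7 RNA polymerase at 37°C for 5 hours, with a further 15 min in DNase I before EDTA stopped the reaction; the ribozymes cleaved during both steps. The RNA was reverse transcribed with template switching and sequenced on Illumina. Relative activity is the cleaved/total read fraction of a variant divided by that of the unmutated ribozyme, averaged over three batches with at least 5 reads.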
In the case of UAACAGGGGGCCUCAGCUGGAGCGUUCACGUCGCAGCCCCUGUCUGAUUCUGGUGAACCUGCGAACUCUGCUGUAUAUCUC [A13U A18U A20G A45U U58C U66C], the self-cleavage is reported as 0.07. In the case of UAACAGGGGGCCUCAGCUGGAGCGUUCACGUCGCAGCCCCUGUCAGAUUCUGGUGCGUCUGCGAAUUCUGCUGCGUAUCUC [A13U A18U A20G A56C A57G U74C A75G], the self-cleavage is reported as 0.06. Variant UAACAGGGGGCCUCAGCUGACGCGUUCACGUCGCAGCCCCUGUCUGAUUCUGGUGAAUCUGCGAAUACUGCGGUUUAUCUC [A13U A18U A21C A45U U67A U72G A75U] has a self-cleavage of 0.07. UAACAGGGGGCCUCAGCUGAGGCGUUCACGUCGCAGCCCCUGUCAGAUUCUGGUGAAUCUGCGAAUUCUGCUGUAUAUCUC [A13U A18U A21G] gave a self-cleavage of 0.22. Variant UAACAGGGGGCCUCAGCUGAAGCGUUCCCGUCGCAGCCCCUGUCAGAUUCUGGUGAAUCUGCGAAUUCUGCUGUAUAUCUC [A13U A18U A28C] has a self-cleavage of 0.15. Variant UAACAGGGGGCCUCAGCUGAAGCGUUCUCGACGCAGCCCCUGUCAGAUUCUGGUGAAUCUGCGAAUUCUGCUGUAUAUCUC [A13U A18U A28U U31A] has a self-cleavage of 0.09. In the case of UAACAGGGGGCCUCAGCUGAAGCGUUCACGUCGCAGCCCCUGUCAGAUUCUGGUGCAUCUGCGAAUUCUGCUGUAUAUCUC [A13U A18U A56C], the self-cleavage is reported as 0.12. In the case of UAACAGGGGGCCUCAGCUGAAGCGUUCACGUCGCAGCCCCUGUCAGAUUCUGGUGAAUCUGCGAAUUCUGCUGUAUUUCUC [A13U A18U A77U], the self-cleavage is reported as 0.18. With UAACAGGGGGCCUCAGCUGAAGUGUUCACGUCGCAGCCCCUGUCCGACUCUGGUGAAUCUGCGAAUUCUUCUGUAUACCUC [A13U A18U C23U A45C U48C G70U U78C] the self-cleavage was 0.02. UAACAGGGGGCCUCAGCUGAAGCGUUGACGUCACAGCCCCUGUCAGACUCUGGUGAAUCUGCGAAUUCUGCUGUAUAUCUC [A13U A18U C27G G33A U48C] gave a self-cleavage of 0.04. Variant UAACAGGGGGCCUCAGCUGAAGCGUUCACGUCGCAGUCCCCGUCAGAUUCUGGUGAAUCUGCGAAUGCUGCUGUAUAUCUC [A13U A18U C37U U41C U67G] has a self-cleavage of 0.13. Work on UAACAGGGGGCCUCAGCUGAAGCGCUCACGUCGCAGCCCCUGUCAGAUUCUGGCGAAUCUGCGAAUUCUGCCGUAUAUCUC [A13U A18U U25C U54C U72C] yielded a self-cleavage of 0.09. With UAACAGGGGGCCUCAGCUGAAGCGGUCACGUCGCAGCCCCUGUCAGAUUCUGGUGAAUCUGCGGAUUCUGCCGUACAUCUC [A13U A18U U25G A64G U72C U76C] the self-cleavage was 0.21. For UAACAGGGGGCCUCAGCUGAAGCGUACACGUCGCAGCCCCUGUCAGAUUCUGGUGAAUCUGCGAAUUCUGCUGUAUAUCUC [A13U A18U U26A], the self-cleavage was 0.19. In the case of UAACAGGGGGCCUCAGCUGAAGCGUACACGUCGCAGCCCCUGUCAGAUUCUGGUGAAUCUGCGAAUUCUGCUGUAUAUCCC [A13U A18U U26A U80C], the self-cleavage is reported as 0.33. UAACAGGGGGCCUCAGCUGAAGCGUUCACGUCGCAGCCCCAGUCAGACACUGGUGAAUCUGCGAAUUCUGCAGUAAAUCUC [A13U A18U U41A U48C U49A U72A U76A] showed a self-cleavage of 0.02. Work on UAACAGGGGGCCUCAGCUGAAGCGUUCACGUCGCAGCCCCCGUCAGAUUCUGGUGAACCUGCGAAUUCUGCCGUAUAUCUC [A13U A18U U41C U58C U72C] yielded a self-cleavage of 0.23. Work on UAACAGGGGGCCUCAGCUGAAGCGUUCACGUCGCAGCCCCCGUCAGAUUCUGGUGAAUCUGCGAAUCCUGGUGUAUAUCUC [A13U A18U U41C U67C C71G] yielded a self-cleavage of 0.19. For UAACAGGGGGCCUCAGCUGAAGCGUUCACGUCGCAGCCCCUGUCAGACUCUGGUGAAUCAGCGAAUUCUGCUGUUUAUCUC [A13U A18U U48C U60A A75U], the self-cleavage was 0.17. Work on UAACAGGGGGCCUCAGCUGAAGCGUUCACGUCGCAGCCCCUGUCAGAUCCUGGUGAAUCUGCGAAUUCUGCGGUACAUCAC [A13U A18U U49C U72G U76C U80A] yielded a self-cleavage of 0.26. In the case of UAACAGGGGGCCUCAGCUGAAGCGUUCACGUCGCAGCCCCUGUCAGAUUCUGGAGAAUCUGCGAAUUCUGCUGUAUAUCUC [A13U A18U U54A], the self-cleavage is reported as 0.43. UAACAGGGGGCCUCAGCUGAAGCGUUCACGUCGCAGCCCCUGUCAGAUUCUGGUGAAUCUGCGAAUUCUGCCGUACGUCUC [A13U A18U U72C U76C A77G] showed a self-cleavage of 0.3. With UAACAGGGGGCCUCAGCAGCCGCGUUCACGCCGCAGCCCCUGUCGGAUUCUGGUGAAUCUGCGAAUUCUGCUGUAUAUCUC [A13U A20C A21C U31C A45G] the self-cleavage was 0.25. In the case of UAACAGGGGGCCUCAGCAGCAUCGUUCACGUCGCAGCCCCUGCCAGAUUCUGGUGAAUCUGCGAAUUCUGCUGUAUAUCUC [A13U A20C G22U U43C], the self-cleavage is reported as 0.06. In the case of UAACAGGGGGCCUCAGCAGCAGCGUUCACGUCGCAGCCCCUGUCAGAUUCUGGCGAAUCUGCGAAUCCUGCUGUAUAUCUC [A13U A20C U54C U67C], the self-cleavage is reported as 0.06. In the case of UAACAGGGGGCCUCAGCAGGGGCGUCCACGUCGCAGCCCCUGUCAGAUUCUGGUGAAUCUGCGAAUUCUGCUGUAUGUCUC [A13U A20G A21G U26C A77G], the self-cleavage is reported as 0.08. Variant UAACAGGGGGCCUCAGCAGGUGCGUUCACGUCGCAGCCCCUGUCAGAUUCUGGUGAAUCUGCGGAUUCUGCUGUAUAUCUC [A13U A20G A21U A64G] has a self-cleavage of 0.2. Work on UAACAGGGGGCCUCAGCAGGAGCGUUCACGUCGCCGCCCCUGUCAGAAUCUGGUGAAUCUGCGAAUUCUACUGUAUAUAUC [A13U A20G A35C U48A G70A C79A] yielded a self-cleavage of 0.06. UAACAGGGGGCCUCAGCAGGAGCGUUCACGUCGCGGCCCCUGUCAGAUUCUGGUGAAUCUGCGAAUUCUGCCGUAUAUCUC [A13U A20G A35G U72C] gave a self-cleavage of 1.19. UAACAGGGGGCCUCAGCAGGAGCGUUCACGUCGCAGCCCCUGUCGGGUUCUGGUGAAUCUGCGAAUUCUGCUGUAUAUCUC [A13U A20G A45G A47G] showed a self-cleavage of 0.45. For UAACAGGGGGCCUCAGCAGGAGCGUUCACGUCGCAGCCCCUGUCGGACUCUGGUGACUCUGCGAAUUCUGCUGUAUAUCUC [A13U A20G A45G U48C A57C], the self-cleavage was 0.15. In the case of UAACAGGGGGCCUCAGCAGGAGCGUUCACGUCGCAGCCCCUGUCGGAUUCUGGCGAAUCUGCGAAUUCUGCUGUAUAUCUC [A13U A20G A45G U54C], the self-cleavage is reported as 0.37. UAACAGGGGGCCUCAGCAGGAGCGUUCACGUCGCAGCCCCUGUCAGAUUCUGGUGGAUCAGCGAAUUCUGCUGUAUGUCUC [A13U A20G A56G U60A A77G] showed a self-cleavage of 0.47. With UAACAGGGGGCCUCAGCAGGAGCGUUCACGUCGCAGCCCCUGUCAGAUUCUGGUGUGUCUGCGAAUUCUCCUGUAUAUCUC [A13U A20G A56U A57G G70C] the self-cleavage was 0.07.
